Laboratory results published in patent publication US11413278B2, “Compounds and methods for promoting stress resistance” (priority 2015, dated 2022).
For some assays here: The name of at least one read-out is uncertain. Some results were stated once for a whole list of compounds, not compound by compound. Some ranges recur; such a range may be that of the whole group of compounds.

What was measured:
WI-38 cells = details: for Screen 1: Screening, at 10 uM (viability assay by ATP measurement, normalized fold-change shown, >=2.5): 24 h, then 700 μM H2O2 3 h, normalized to DMSO; for Screen 2: Dose response, at 10 uM (viability assay by ATP measurement, normalized fold-change shown, >=1.5) / Screen 3: Dose response, at 20 uM (viability assay by ATP measurement, normalized fold-change shown): H2O2 stress; for Exp. 1, under H2O2 stress treatment, at 10 uM (fold change): Exp. 1, WI-38 cells; for Exp. 1, under H2O2 stress treatment, at 10 uM (fold change) / Exp. 2, under H2O2 stress treatment, at 10 uM (fold change): normalized ATP measurement (Table 12); for Exp. 2, under H2O2 stress treatment, at 10 uM (fold change): Exp. 2, WI-38 cells; for Experiment 1, WI-38 cells (under H2O2 stress treatment), at 10 uM (fold change) / Experiment 2, WI-38 cells (under H2O2 stress treatment), at 10 uM (fold change): 10 uM (run along with HDF cells); for Dose response retest, at 10 uM (fold change) / Dose response retest, at 20 uM (fold change) / Library Screening, at 10 uM (fold change): H2O2-resistance of WI-38 cells; for Dose response retest, at 10 uM (fold change) / Dose response retest, at 20 uM (fold change): cherry-picked retest; for H2O2 stress treatment (3 hrs), at 10 uM (fold change): WI-38 cells, H2O2 3 hrs, normalized ATP measurement
mTOR = mTOR inhibition (RPS6 phosphorylation status), In-Cell Western; type: cell-based, human; details: 10 μM, 24 hrs, WI-38
Experimental: In-Cell Western assays were performed, following a standard immuno-staining protocol. Briefly, WI-38 cells were treated with small molecules for 24 hrs, and then processed and incubated with primary antibody cocktail (Cell Signaling, mouse anti-RPS, 1:25; rabbit-anti-pRPS6-(Ser-235/236), 1:100) overnight at 4° C. Next day, samples were processed and incubated with fluorophore-conjugated secondary antibodies (Cell Signaling, DyLight 680-goat anti-mouse, 1:500; DyLight 800-goat anti-rabbit, 1:1,000). Images were collected on an Odyssey Imager (LI-COR) and analyzed with the Image Studio Lite software (version 5.0.21).
Mammalian target of rapamycin (mTOR) is a crucial regulator of cell growth and metabolism and has been implicated in aging and many diseases, including cancer, diabetes and neurological diseases (Dazert and Hall, 2011; Zoncu et al., 2011). […] In addition, the anti-diabetes drug metformin (Kalender et al., 2010), as well as other AMPK activators such as 2-deoxy-D-glucose (Inoki et al., 2003) and AICAR (Shaw et al., 2004), could inhibit mTORC1. Applicants examined the effects of our molecules (at three doses, 5 μM, 10 μM and 20 μM) on the phosphorylation status of ribosomal protein S6 (RPS6), a readout of mTOR activity, to ask whether they could inhibit mTOR.
In-Cell Western assays were performed, following the same procedures to analyze DNA-damage markers. WI-38 cells were incubated with small molecules for 24 hrs, and then processed and incubated with primary antibody cocktail (mouse anti-RPS, 1:25; rabbit-anti-pRPS6, 1:100) overnight at 4° C. Next day, samples were processed and incubated with fluorophore-conjugated secondary antibodies (goat anti-mouse, 1:500; goat anti-rabbit, 1:1,000) in antibody dilution buffer. Images were collected on an Odyssey Imager (LI-COR) and analyzed with the Image Studio Lite software.

NRF2 = assay: qPCR analysis of NRF2-regulated genes; type: cell-based, human; details: WI-38
Experimental: (§1) For qPCR analysis, WI-38 cells were treated with small molecules (at 10 μM) (biological quadruplicates) for 24 hrs and processed for RNA isolation and reverse transcription (RT) with the Cells-to-Ct Kit (Life Technologies), following manufacturer's instructions. RT products were diluted with H2O and used for qPCR analysis on an ABI 7300 system (Life Technologies) (technical triplicates). Relative expression levels of target genes were normalized to the genes B2M, PPIA and GAPDH. To knock down the expression of FOXO3 or NRF2, WI-38 cells were transfected, using the RNAiMAX reagents (Life Technologies), with siRNA oligos (at 10 nM final concentration, 10 ml culture medium) for FOXO3 (Life Technologies) or NRF2 (Integrated DNA Technologies) on 10-cm petri dishes for 36 hrs, and then detached and aliquoted onto 96-well (for qPCR analysis) or 384-well plates (for H2O2-stress treatment). ˜24 hrs later, small molecules were introduced and incubated with cells for 24 hrs. Cells were then either processed with the Cells-to-Ct Kit to prepare RT products for qPCR analysis or subjected to H2O2 (700 μM) for 3 hrs and assayed for viability. The knockdown efficiency of FOXO3 or NRF2 was checked at 36 hrs post-transfection and at the end as well.
For qPCR analysis, WI-38 cells were treated with small molecules (at 10 μM) (biological quadruplicate) for 24 hrs and processed for RNA isolation and reverse transcription (RT) with the Cells-to-Ct Kit (Life Technologies), following manufacturer's instructions. […]
NRF2/SKN-1, the oxidative stress and xenobiotic phase 2 detoxification protein, can extend animal lifespan (Sykiotis and Bohmann, 2008; Tullet et al., 2008). Applicants analyzed these small molecules for their ability to increase the expression of NRF2-regulated genes, including HMOX1 (heme oxygenase (decycling) 1; anti-oxidant), NQO1 (NAD(P)H dehydrogenase, quinone 1; phase 2 detoxification enzyme), GCLC (glutamate-cysteine ligase, catalytic) and GSTM1 (glutathionine S transferase) (Hur and Gray, 2011; Suzuki et al., 2013).

FOXO3 = assay: qPCR analysis of FOXO3-regulated genes; type: cell-based, human; details: 10 μM, 24 hrs, WI-38
Experimental: as §1
For qPCR analysis, WI-38 cells were treated with small molecules (at 10 μM) (biological quadruplicate) for 24 hrs and processed for RNA isolation and reverse transcription (RT) with the Cells-to-Ct Kit (Life Technologies), following manufacturer's instructions. RT products were diluted with H2O and used for qPCR analysis on a LightCycler 480 system (Roche) (technical triplicates). Relative expression levels of target genes were normalized to the genes B2M, PPIA and GAPDH. To knock down the expression of FOXO3 or NRF2, WI-38 cells were transfected with siRNA oligos (at 10 nM final concentration) for FOXO3 (Life Technologies) or NRF2 on 10-cm petri dish for 36 hrs, and then detached and aliquoted onto 96-well plates. ˜24 hrs later, small molecules were introduced and incubated with cells for 24 hrs. Cells were then processed with the Cells-to-Ct Kit to prepare RT products for qPCR analysis. The knockdown efficiency of FOXO3 or NRF2 was checked at 36 hrs post-transfection and at the end as well.
Many perturbations that increase lifespan and stress resistance in animals do so in a FOXO-dependent fashion (Kenyon, 2010c). Humans have several FOXO genes, but FOXO3, which promotes stress resistance in mammalian cell culture (Kops et al., 2002; Nemoto and Finkel, 2002; Tran et al., 2003), is the one that has been linked to exceptional longevity in humans (Anselmi et al., 2009; Flachsbart et al., 2009; Li et al., 2009; Pawlikowska et al., 2009; Soerensen et al., 2010; Willcox et al., 2008). […]

LC3A/B puncta = assay: Autophagy induction analysis (LC3A/B puncta immuno-staining); type: cell-based, human; details: WI-38, 24 hrs
Experimental: Immuno-staining of LC3A/B was performed, following a standard protocol. Briefly, WI-38 cells were treated with small molecules for 24 hrs, and then processed and incubated with primary antibody (Cell Signaling, rabbit anti-LC3A/B, 1:100) overnight at 4° C. Next day, samples were processed and incubated with fluorophore-conjugated secondary antibody and further incubated with DAPI dye. Images were collected on the INCell Analyzer 2000 (Experiment 1: 10× objective; Experiment 2: 20× objective) and analyzed with the Developer Toolbox. For Experiment 2, lysosomal-associated membrane protein 2 (LAMP2) was also counter-stained to identify the LC3A/B puncta that colocalize with lysosome and the data were analyzed by the MetaXpress software (Molecular Devices, version 5.1). The intensity of total (Exp. 1) or LAMP2-colocalized LC3A/B puncta (Exp. 2) was normalized the total numbers nuclei in the fields.
These assays were performed, following the same procedures to analyze DNA-damage markers. WI-38 cells were incubated with small molecules for 24 hrs, and then processed and incubated with primary antibody (rabbit anti-LC3A/B, 1:100) overnight at 4 C. The next day, samples were processed and incubated with fluorophore-conjugated secondary antibody and further incubated with DAPI dye. Images were collected on an INCell Analyzer 2000 and analyzed with the Developer software. Total LC3A/B puncta intensity was normalized the total numbers of DAPI-positive nuclei.

Compound | Screen 1: Screening, at 10 uM (viability assay by ATP measurement, normalized fold-change shown, >=2.5) (WI-38 cells) [fold-change] | Screen 2: Dose response, at 10 uM (viability assay by ATP measurement, normalized fold-change shown, >=1.5) (WI-38 cells) [fold-change] | Screen 3: Dose response, at 20 uM (viability assay by ATP measurement, normalized fold-change shown) (WI-38 cells) [fold-change] | Exp. 1, under H2O2 stress treatment, at 10 uM (fold change) (WI-38 cells) | Exp. 2, under H2O2 stress treatment, at 10 uM (fold change) (WI-38 cells) | Experiment 1, WI-38 cells (under H2O2 stress treatment), at 10 uM (fold change) (WI-38 cells) | Experiment 2, WI-38 cells (under H2O2 stress treatment), at 10 uM (fold change) (WI-38 cells) | Dose response retest, at 10 uM (fold change) (WI-38 cells) | Dose response retest, at 20 uM (fold change) (WI-38 cells) | Library Screening, at 10 uM (fold change) (WI-38 cells) | H2O2 stress treatment (3 hrs), at 10 uM (fold change) (WI-38 cells) | Reduction of ratio of phosphorylated RPS6 (p-RPS6) to total RPS6 (mTOR) | HMOX1 induction (NRF2) | NQO1 induction (NRF2) | Robust expression of at least 2 FOXO3 target genes (FOXO3) | LC3A/B puncta induction (LC3A/B puncta) [fold]
O=C(NCc1cccnc1)/C(=C\c1ccc(Br)cc1)S(=O)(=O)c1ccccc1 [Gr-7B] | 3.36 | 1.29 | 2.61 | 1.41 | 1.21 | .059 fold change | 3.82 | 1.29 | 2.61 | 3.36 | 0.77 | 30%-60% | – | – | – | –
CC1C(=O)C(C)C(c2cc(Cl)ccc2O)NC1c1cc(Cl)ccc1O (centres unmarked) [O6] | 2.88 | 1.50 | 1.95 | 1.93 | 1.12 | 2.57 fold change | 2.91 | 1.50 | 1.95 | 2.88 | 1.89 | – | more than 1.5 fold | more than 1.5 fold | – | –
CCCC(=O)Nc1ccc(-c2cn3cccc(C)c3n2)cc1 [O12] | 3.82 | 5.74 | 9.57 | 2.89 | 3.42 | 7.61 fold change | 9.99 | 5.74 | 9.57 | 3.82 | 9.31 | – | – | – | greater than 1.5 fold | –
CCCN1C/C(=C\c2ccc(F)cc2)C(=O)/C(=C/c2ccc(F)cc2)C1 [O15] | 4.60 | 1.57 | 2.32 | 1.07 | 0.41 | 2.92 fold change | 6.45 | 1.57 | 2.32 | 4.60 | 1.25 | – | – | more than 1.5 fold | – | –
COc1cccc(/C=C2\CN(C)C/C(=C\c3cccc(OC)c3OC)C2=O)c1OC [O23] | 15.73 | 2.82 | 1.44 | 1.10 | 0.95 | 1.77 fold change | 9.30 | 2.82 | 1.44 | 15.73 | 3.47 | – | – | – | greater than 1.5 fold | ≥ 2
